Assay [1] addresses T1, LAMP1, endogenous in HCC patient liver tissue (human (endogenous in HCC patient tissue)) (UniProt P11279).
T1 sequence: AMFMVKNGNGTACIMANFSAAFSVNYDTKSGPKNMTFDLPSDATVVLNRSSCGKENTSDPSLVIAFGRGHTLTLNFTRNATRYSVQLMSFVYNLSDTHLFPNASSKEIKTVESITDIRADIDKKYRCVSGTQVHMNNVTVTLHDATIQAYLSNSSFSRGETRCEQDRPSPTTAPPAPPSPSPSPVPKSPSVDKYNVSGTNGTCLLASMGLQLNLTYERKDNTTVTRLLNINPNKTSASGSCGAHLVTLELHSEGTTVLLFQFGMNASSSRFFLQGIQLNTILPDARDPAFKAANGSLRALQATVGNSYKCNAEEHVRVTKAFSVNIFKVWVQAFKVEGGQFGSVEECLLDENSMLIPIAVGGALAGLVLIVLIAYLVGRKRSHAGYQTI
The assay is described as follows: co-IP; whole tissue extracts of HCC patient tumor and non-tumor liver tissues immunoprecipitated with anti-LAMP1 antibody, immunoblot for TM4SF5 and SLAMF7.

Chains of the proteins cited; added tags and fusions are not shown. Lines headed by an entry give the natural chain unless they say otherwise; changes in a name come on top.
UniProt O14894: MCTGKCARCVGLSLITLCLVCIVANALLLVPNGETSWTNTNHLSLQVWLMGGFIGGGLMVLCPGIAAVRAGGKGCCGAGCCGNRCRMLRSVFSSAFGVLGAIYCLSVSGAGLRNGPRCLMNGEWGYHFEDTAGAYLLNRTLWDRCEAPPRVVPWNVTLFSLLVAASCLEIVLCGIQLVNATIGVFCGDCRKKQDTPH

Assay [2] concerns the target Strep-TM4SF5 (transmembrane 4 L six family member 5), wild type (human) (UniProt O14894). The assay is described as follows: pull-down; SNU761 cells transfected with Strep-TM4SF5 (WT or Gly−) and FLAG-SLAMF7 (WT, deletion or N-glycosylation mutants), lysed in Brij58 lysis buffer (20 mM HEPES pH 7.4, 150 mM NaCl, 2 mM MgCl2, 2 mM CaCl2, 1% Brij58), streptavidin-agarose 4 h at 4 °C, immunoblot; also after treatment of the cells for 24 h with ST-5-002 (binding reduced) or ST-3-001 (binding not reduced, rather increased).

Assay [3] has the same target. Description: pull-down; as a1, but the SNU761 cells expressing Strep-TM4SF5 were treated with ST-5-001 (DMSO as control) before harvest; streptavidin-agarose pull-down, immunoblot for SLAMF7.
For assay [4] the target is unchanged. Description: pull-down; lysates of subconfluent SNU761 cells expressing Strep-TM4SF5 pulled down with streptavidin-agarose beads (4 h, 4 °C), immunoblot for endogenous SLAMF7.
Assay [5] has as its target Strep-TM4SF5 Gly− (N-glycosylation-deficient, N138A/N155Q) (human) (UniProt O14894). Description: pull-down; SNU761 cells transfected with Strep-TM4SF5 (WT or Gly−) and FLAG-SLAMF7 (WT, deletion or N-glycosylation mutants), lysed in Brij58 lysis buffer (20 mM HEPES pH 7.4, 150 mM NaCl, 2 mM MgCl2, 2 mM CaCl2, 1% Brij58), streptavidin-agarose 4 h at 4 °C, immunoblot; also after treatment of the cells for 24 h with ST-5-002 (binding reduced) or ST-3-001 (binding not reduced, rather increased).

In assay [6] the target is Strep-TM4SF5 (transmembrane 4 L six family member 5), wild type (human) (UniProt O14894). The assay is described as follows: co-IP; SNU761 cells transiently transfected with WT or N-glycosylation mutants of SLAMF7, coimmunoprecipitation with TM4SF5 (Fig. 4f); details not told.

Changes are numbered by the printed parent chain. Names and notes keep the numbering of the source. No constants are given. Whether binding was seen depends on the method and setting. In cells and extracts the contact can be indirect. Some entries that bind do so weakly or less than the wild type. For part of these data: Sequences can lack the tags named with a protein.

For the molecule “TM4SF5, endogenous in HCC patient liver tissue (from UniProt O14894 1-197)”, the binding entry in assay [1] is listed as “binds”.

B1: FLAG-SLAMF7 ΔECD (Δ1–225) (domain or fragment, UniProt Q9NQ25 226-335)
chain: MVLLCLLLVPLLLSLFVLGLFLWFLKRERQEEYIEEKKRVDICRETPNICPHSGENTEYDTIPHTNRTILKEDPANTVYSTVEIPKKMENPHSLLTMPDTPRLFAYENVI
In the case of B1, the binding result in assay [2] is “binds”.

B2: FLAG-SLAMF7 ΔTM (Δ226–247) (protein, UniProt Q9NQ25)
chain: SGPVKELVGSVGGAVTFPLKSKVKQVDSIVWTFNTTPLVTIQPEGGTIIVTQNRNRERVDFPDGGYSLKLSKLKKNDSGIYYVGIYSSSLQQPSTQEYVLHVYEHLSKPKVTMGLQSNKNGTCVTNLTCCMEHGEEDVIYTWKALGQAANESHNGSILPISWRWGESDMTFICVARNPVSRNFSSPILARKLCEGAADDPDSSWFLKRERQEEYIEEKKRVDICRETPNICPHSGENTEYDTIPHTNRTILKEDPANTVYSTVEIPKKMENPHSLLTMPDTPRLFAYENVI
Consider B2, for which the binding entry in assay [2] was “no binding”.

B3: SLAMF7 (signaling lymphocytic activation molecule family member 7), endogenous in SNU761 cells (protein, UniProt Q9NQ25 23-335)
chain: SGPVKELVGSVGGAVTFPLKSKVKQVDSIVWTFNTTPLVTIQPEGGTIIVTQNRNRERVDFPDGGYSLKLSKLKKNDSGIYYVGIYSSSLQQPSTQEYVLHVYEHLSKPKVTMGLQSNKNGTCVTNLTCCMEHGEEDVIYTWKALGQAANESHNGSILPISWRWGESDMTFICVARNPVSRNFSSPILARKLCEGAADDPDSSMVLLCLLLVPLLLSLFVLGLFLWFLKRERQEEYIEEKKRVDICRETPNICPHSGENTEYDTIPHTNRTILKEDPANTVYSTVEIPKKMENPHSLLTMPDTPRLFAYENVI
For the molecule B3, the binding result was “no binding (condition: cells treated with ST-5-001)” in assay [3] and “binds” in assay [4].

B4: FLAG-SLAMF7 NQ#45 (N172/176Q) (protein, UniProt Q9NQ25 23-335)
chain: B3 chain with N150Q, N154Q
For the molecule B4, the binding result in assay [2] is reported as “no binding”.

B5: FLAG-SLAMF7, wild type (protein, UniProt Q9NQ25 23-335)
chain: B3 chain
For the molecule B5, the binding entry in assay [5] is listed as “no binding”; in assay [2], “binds”.

B6: SLAMF7, endogenous in HCC patient liver tissue (protein, UniProt Q9NQ25 23-335)
chain: B3 chain
With B6, the binding entry in assay [1] is “binds”.

B7: SLAMF7 NQ#123 (N98/142/148Q) (protein, UniProt Q9NQ25 23-335)
chain: B3 chain with N76Q, N120Q, N126Q
Take B7: the binding entry in assay [6] is reported as “binds weakly”.

B8: FLAG-SLAMF7 NQ#456 (N172/176/204Q) (protein, UniProt Q9NQ25 23-335)
chain: B3 chain with N150Q, N154Q, N182Q
As for B8, the binding entry in assay [2] is reported as “no binding”.

B9: FLAG-SLAMF7 NQ#6 (N204Q) (protein, UniProt Q9NQ25 23-335)
chain: B3 chain with N182Q
With B9, the binding result in assay [2] is reported as “no binding”.

(Values after PMC11743776, “Isoxazole-based molecules restore NK cell immune surveillance in hepatocarcinogenesis by targeting TM4SF5 and SLAMF7 linkage” (Signal Transduction and Targeted Therapy, 2025).)
